Measurements from PubChem BioAssay (Tox21).
“And” between values parts separate entries of the source, which are not always exact repeats. Equal entries are not always repeated. This list was built around the results that the source calls inconclusive (neither active nor inactive); the mix of calls is not that of the screen. For some of these results: Potencies of inconclusive entries are doubtful fits and often do not repeat. A structure can be active in one record and inactive in another. The source made the active and inactive calls. Unless noted, calls follow the shape of the dose curve; as a rule, active = well fitted curve in the direction sought with a large enough effect in the repeat runs; inconclusive = weak or mixed curves; inactive = no such curve, though single readings can be large; an effect the other way counts as inactive or inconclusive.

Legend:
[1] = qHTS assay for small molecule agonists of the p53 signaling pathway - cell viability (AID 651633; calls by dose curve; also: nearly all actives have a fitted effect of over 30% in size;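 as to activity change, negative = cytotoxicity: p53RE-bla HCT reporter cells with a stable beta-lactamase p53 reporter; % is scaled to controls: 0 for no effect and ±100 for the full control effect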)
Method in brief: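 p53RE-bla cells were treated with compound for 16 hours at 37 C. Cytotoxicity was then measured as CellTiter-Glo luminescence after 30 min at room temperature.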

[2] = qHTS assay for small molecule disruptors of the mitochondrial membrane potential (AID 720635); conditions: HepG2 mitochondrial membrane potential, Mito-MPS dye ratio; ratio activity, negative = MMP loss: at 83.2 µM (top of the series) unless noted; as to ratio activity, negative = MMP loss: % is scaled to controls: 0 for no effect and ±100 for the full control effect
Method in brief: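 HepG2 cells exposed to compound 1 hr at 37C, then Mito-MPS dye 30 min. Ratio read of aggregate (540/590 nm) versus monomer (490/535 nm) fluorescence.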

[3] = qHTS assay to identify small molecule antagonists of the glucocorticoid receptor (GR) signaling pathway - cell viability counter screen (AID 720693); conditions: GR-bla HeLa viability, CellTiter-Glo luminescence, 18 h, with 5 nM dexamethasone present; viability change, negative = cytotoxic: at 58.5 µM (top of the series); also: nearly all actives have a fitted effect of over 55% in size
[4] = qHTS assay for identifying genotoxic compounds that show differential cytotoxicity against isogenic chicken DT40 cell lines with known DNA damage response pathways - wild type cell line (AID 743012); conditions: DT40 wild type chicken cells viability, CellTiter-Glo, 40 h; activity change, negative = cytotoxicity: at 68.4 µM (top of the series); also: nearly all actives have a fitted effect of over 60% in size; as to activity change, negative = cytotoxicity: % is scaled to controls: 0 for no effect and ±100 for the full control effect
Method in brief: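 300 wt DT40 cells/well; cpd (DMSO) pintool-transferred after ~0.5 h at 37 C/5% CO2; 40 h incubation; CellTiter-Glo added, 30 min RT; luminescence read.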

[5] = qHTS assay for small molecule disruptors of the mitochondrial membrane potential - cell viability (AID 720634; calls by dose curve; also: nearly all actives have a fitted effect of over 20% in size)
Method in brief: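 Same-well counter-screen: following the MMP dye addition, CellTiter-Glo was added to 1 hr compound-treated HepG2 cells and luminescence read after 30 min at room temperature.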

[6] = molecular target: Glucocorticoid receptor (Homo sapiens) (UniProt P04150); test: qHTS assay to identify small molecule agonists of the glucocorticoid receptor (GR) signaling pathway (AID 720691; active = well fitted activation curve with a large enough effect in the signal ratio in the repeat runs, not every such curve was filed as active; inconclusive = weak or mixed curves, or effect the other way; inactive = no such curve, though single readings can be large or run the other way; the % refers to the signal ratio; as to activation: % is scaled to controls: 0 for no effect and ±100 for the full control effect); conditions: GR-bla HeLa, beta-lactamase reporter ratio, 18 h; activation: at 62.4 µM (top of the series) unless noted
Sequence of UniProt P04150 (P04150 whole entry, looked up): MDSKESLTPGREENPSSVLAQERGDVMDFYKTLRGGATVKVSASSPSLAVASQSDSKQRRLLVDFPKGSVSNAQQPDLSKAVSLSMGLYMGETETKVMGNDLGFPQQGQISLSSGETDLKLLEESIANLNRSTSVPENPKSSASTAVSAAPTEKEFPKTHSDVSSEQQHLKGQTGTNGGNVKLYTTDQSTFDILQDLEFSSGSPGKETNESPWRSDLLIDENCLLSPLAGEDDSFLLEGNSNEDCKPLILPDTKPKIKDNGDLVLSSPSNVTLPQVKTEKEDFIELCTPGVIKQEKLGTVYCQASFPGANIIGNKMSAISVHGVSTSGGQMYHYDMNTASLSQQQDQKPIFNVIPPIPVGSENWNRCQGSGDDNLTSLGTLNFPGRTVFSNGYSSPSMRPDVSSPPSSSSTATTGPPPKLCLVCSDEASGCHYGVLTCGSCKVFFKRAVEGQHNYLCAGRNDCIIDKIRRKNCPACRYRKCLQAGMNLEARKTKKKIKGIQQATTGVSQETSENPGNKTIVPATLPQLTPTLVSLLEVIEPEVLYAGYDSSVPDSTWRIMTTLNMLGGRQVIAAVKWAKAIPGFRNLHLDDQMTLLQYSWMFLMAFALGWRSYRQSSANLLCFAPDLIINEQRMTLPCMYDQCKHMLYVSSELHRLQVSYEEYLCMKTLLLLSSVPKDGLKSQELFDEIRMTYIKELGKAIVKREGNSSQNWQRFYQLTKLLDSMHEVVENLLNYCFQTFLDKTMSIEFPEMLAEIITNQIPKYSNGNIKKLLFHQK
Method in brief: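 A HeLa cervical cancer line expressing GR and a glucocorticoid response element-driven beta-lactamase gene is treated with compounds for 18 h; LiveBLAzer B/G FRET substrate is then applied and fluorescence read.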

[7] = molecular target: Glucocorticoid receptor (Homo sapiens) (UniProt P04150); test: qHTS assay to identify small molecule antagonists of the glucocorticoid receptor (GR) signaling pathway (AID 720692; active = well fitted inhibition curve with a large enough effect in the signal ratio in the repeat runs, not every such curve was filed as active; inconclusive = weak or mixed curves, or effect the other way; inactive = no such curve, though single readings can be large or run the other way; the % refers to the signal ratio); conditions: GR-bla HeLa, beta-lactamase FRET ratio, dexamethasone-stimulated, 18 h; activity change, negative = inhibition: at 58.5 µM (top of the series) unless noted
Method in brief: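 GRE-bla HeLa line, dex-stimulated (5 nM final). Compound exposure 18 h, 37 C. Beta-lactamase FRET read after 2 h RT substrate.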

[8] = qHTS assay for small molecules that induce genotoxicity in human embryonic kidney cells expressing luciferase-tagged ATAD5 - cell viability (AID 651634; calls by dose curve; also: nearly all actives have a fitted effect of over 25% in size)
Method in brief: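 Quantitative high-throughput format. HEK293T cells expressing ATAD5 fused to luciferase were plated at 2,000 cells/well and treated 15.5 hr with compound versus DMSO. Viability was determined by fluorescent live-cell protease substrate, 30 min at 37C.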

[9] = qHTS assay to test for compound auto fluorescence at 535 nm (green) in HepG2 cells (AID 720675); conditions: green autofluorescence 485/535 nm, 1 h
[10] = qHTS assay to test for compound auto fluorescence at 590 nm (red) in HEK293 cells (AID 720679); conditions: red autofluorescence 540/590 nm
Method in brief: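 Autofluorescence equivalency to Rose Bengal sodium, 540/590nm, in HEK293 cells exposed overnight to 23 nL compound per well.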

[11] = qHTS assay to test for compound auto fluorescence at 535 nm (green) in HEK293 cells (AID 720680)
[12] = qHTS assay to test for compound auto fluorescence at 535 nm (green) in HEK293 cell free culture (AID 720682); conditions: cell-free medium, green autofluorescence 485/535 nm
Method in brief: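 Steps: dispense DMEM/10% FBS into empty wells; pin in compound or DMSO; measure fluorescence at 485/535 nm. Values are fluorescein equivalents.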

[13] = qHTS assay to test for compound auto fluorescence at 590 nm (red) in HepG2 cell free culture (AID 720684); conditions: cell-free medium autofluorescence, red 540/590 nm
Method in brief: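 Rose Bengal sodium served as the reference for red signal. Test compounds were dispensed into serum-containing MEM (10% FBS) without cells, and plates were read at 540/590 nm.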

[14] = qHTS assay to test for compound auto fluorescence at 535 nm (green) in HepG2 cell free culture (AID 720686); conditions: Cell-free medium, green autofluorescence 485/535 nm
Potency is read from the fitted curve at half-maximal effect; tags tell the direction and shape of the fitted curve or compound fluorescence and quenching.

OC1C(O)C(O)C(O)C(O)C1O (stereo not given)
Potency [1]: inconclusive: 29.8 µM [cytotoxic, partial curve, poor fit] and inactive
Potency [2]: inconclusive: 433 nM [activator, full curve, poor fit]
ratio activity, negative = MMP loss [2]: inconclusive: -1.36%
Potency [3]: inconclusive: 26.8 µM [cytotoxic, single point]
Potency [4]: inactive

C[C@@H]1CC(=O)NN=C1c1ccc(NN=C(C#N)C#N)cc1
Potency [1]: active: 6.68 µM
Potency [5]: inconclusive: 29.8 µM [cytotoxic]
activation [6]: inconclusive: -12.9%
Potency [7]: inconclusive: 26.8 µM [inhibitor, single point]
Potency [3]: inconclusive: 26.8 µM [cytotoxic, single point]

Nc1cc([N+](=O)[O-])ccc1O
Potency [1]: inconclusive: 27.3 µM [cytotoxic, single point]
Potency [8]: inconclusive: 68.2 µM
Potency [2]: active: 27.3 µM and inconclusive: 34.2 µM [inhibitor, partial curve]
Potency [6]: inactive
activity change, negative = inhibition [7]: inconclusive: 23.4%
Potency [4]: inconclusive: 3.06 µM [rising, full curve]

CC(C)CC(=O)CC(C)C
Potency [1]: inconclusive: 34.7 µM [cytotoxic, single point]
Potency [3]: inconclusive: 0.784 µM [rising, partial curve, poor fit]
Potency [4]: inconclusive: 1.1 µM [rising, partial curve, poor fit]

COc1ccc2cc([C@H](C)C(=O)O)ccc2c1
Potency [5]: inconclusive: 5.07 µM [cytotoxic, partial curve, poor fit]
ratio activity, negative = MMP loss [2]: inconclusive: -3.58%

O=C1CN(/N=C/c2ccc([N+](=O)[O-])o2)C(=O)N1
Potency [1]: inconclusive: 68.3 µM [cytotoxic, single point]
Potency [5]: inconclusive: 54.3 µM [cytotoxic, partial curve, poor fit]
Potency [7]: inconclusive: 21.3 µM [activator, partial curve] and inconclusive: 43.5 µM [activator, partial curve]
Potency [4]: inconclusive: 33.5 µM [cytotoxic, single point] and active: 60.9 µM and inconclusive: 68.6 µM [cytotoxic, single point]

CC(CN1c2ccccc2Sc2ccccc21)N(C)C (stereo not given)
Potency [1]: inconclusive: 68.6 µM [cytotoxic, single point]
Potency [3]: inconclusive: 26.8 µM [cytotoxic, single point]

CC(=O)O[C@]1(C(C)=O)CC[C@H]2[C@@H]3C[C@H](C)C4=CC(=O)CC[C@]4(C)[C@H]3CC[C@@]21C
Potency [1]: inconclusive: 23.7 µM [cytotoxic, partial curve, poor fit]
Potency [2]: inconclusive: 1.33 µM [activator, partial curve, poor fit] and inconclusive: 1.37 µM [activator, full curve, poor fit]
Potency [7]: inconclusive: 47.7 nM [inhibitor, full curve] and inconclusive: 155 nM [inhibitor]
Potency [3]: inconclusive: 61.6 µM [rising, partial curve, poor fit]

O=C1OC2(c3ccccc31)c1cc(Br)c(O)c(Br)c1Oc1c2cc(Br)c(O)c1Br
Potency [1]: inconclusive: 23.7 µM [cytotoxic, partial curve]
Potency [5]: inactive
Potency [2]: inconclusive: 11.9 µM [fluorescent, partial curve] and inconclusive: 5.53 µM [activator, full curve] and inconclusive: 49.9 µM [activator, partial curve]
Potency [9]: active: 12.6 µM and active: 4.47 µM and active: 17.8 µM
Potency [10]: active: 5.01 µM [fluorescent] and active: 4.47 µM [fluorescent] and active: 3.55 µM [fluorescent]
Potency [11]: active: 11.2 µM [fluorescent] and inconclusive: 5.01 µM [fluorescent, partial curve, poor fit] and active: 28.2 µM [fluorescent]
Potency [12]: active: 11.2 µM [fluorescent] and inconclusive: 5.01 µM [fluorescent, partial curve, poor fit] and active: 17.8 µM [fluorescent]
Potency [13]: active: 3.16 µM [fluorescent] and active: 2.82 µM [fluorescent] and active: 2.51 µM [fluorescent]
Potency [14]: inconclusive: 5.01 µM [fluorescent, partial curve, poor fit]

CCCCCCCCCCCCCC[P+](CCCC)(CCCC)CCCC
Potency [1]: active: 24.2 µM and active: 15.4 µM
Potency [2]: active: 542 nM and active: 486 nM
Potency [6]: inconclusive: 10.9 µM [cytotoxic, full curve] and inconclusive: 11 µM [cytotoxic, full curve]
Potency [7]: inconclusive: 17.3 µM [cytotoxic, full curve] and inconclusive: 12.3 µM [cytotoxic, full curve]
Potency [3]: active: 9.72 µM and active: 4.9 µM

CCN(CC)CCOc1ccc(/C(=C(\Cl)c2ccccc2)c2ccccc2)cc1
Potency [8]: inconclusive: 49.6 µM [falling, single point]
Potency [2]: inconclusive: 4.73 µM [activator, full curve] and inconclusive: 24.8 µM [cytotoxic, partial curve, poor fit]
Potency [6]: inconclusive: 30.1 µM [cytotoxic, single point] and inconclusive: 50 µM [single point]
Potency [7]: inconclusive: 26.8 µM [cytotoxic, single point] and inconclusive: 50 µM [cytotoxic]
Potency [3]: inconclusive: 26.8 µM [cytotoxic] and inconclusive: 44.6 µM [cytotoxic, single point]

CCN(CC)C(=S)SSC(=S)N(CC)CC
Potency [8]: inconclusive: 59.6 µM [falling, partial curve, poor fit]
Potency [2]: active: 7.7 µM and active: 7.02 µM
ratio activity, negative = MMP loss [2]: inconclusive: 3.54%
activation [6]: inconclusive: -3.29% [phenotype inactive] and inconclusive: -5.12%
Potency [7]: inconclusive: 12.6 µM [activator]
activity change, negative = inhibition [7]: inconclusive: -2.25%

Clc1ccc(C(Cn2ccnc2)OCc2ccsc2Cl)c(Cl)c1 (stereo not given)
Potency [1]: inconclusive: 33.5 µM [cytotoxic, single point]
Potency [2]: inconclusive: 4950 nM [activator]
Potency [6]: inconclusive: 21.3 µM [cytotoxic, partial curve]
Potency [7]: inconclusive: 26.8 µM [cytotoxic]
Potency [3]: inconclusive: 23.9 µM [cytotoxic, single point]

O=C(Nc1ccccc1SSc1ccccc1NC(=O)c1ccccc1)c1ccccc1
Potency [8]: inconclusive: 54.8 µM [falling, partial curve, poor fit] and inconclusive: 54.5 µM [falling, partial curve, poor fit]
Potency [5]: inconclusive: 48.8 µM [cytotoxic, partial curve] and inconclusive: 21.7 µM [cytotoxic, partial curve, poor fit]
Potency [2]: active: 7.74 µM and active: 15.4 µM
Potency [6]: inconclusive: 24.7 µM [cytotoxic, partial curve] and inconclusive: 49 µM
Potency [7]: inconclusive: 39.1 µM [cytotoxic, partial curve] and inconclusive: 54.9 µM [cytotoxic, single point]
Potency [3]: inconclusive: 55.2 µM [cytotoxic, single point] and inconclusive: 61.6 µM [cytotoxic, single point]
Potency [4]: active: 2.45 µM and active: 1.37 µM

NC(=O)N/N=C/c1ccc([N+](=O)[O-])o1
Potency [1]: inconclusive: 27.3 µM [cytotoxic, partial curve, poor fit]
Potency [8]: inconclusive: 21.1 µM [falling, partial curve]
Potency [5]: inactive and inconclusive: 54.5 µM [cytotoxic, partial curve, poor fit]
Potency [7]: inconclusive: 61.6 µM [inhibitor]
Potency [3]: inconclusive: 54.9 µM [cytotoxic, single point]
Potency [4]: inconclusive: 33.5 µM [cytotoxic, single point]

CCCCCCCCCCCCCC[P+](CCCC)(CCCC)CCCC (tested in a mixture with another compound)
Potency [1]: active: 27.5 µM
Potency [5]: active: 61.5 µM
Potency [2]: active: 690 nM
Potency [7]: inconclusive: 12.4 µM [cytotoxic, full curve]
Potency [3]: active: 8.76 µM

Cc1ccc(C(C)(C)C)c(O)c1
Potency [5]: inconclusive: 59.1 µM [cytotoxic, partial curve]
Potency [2]: active: 26.4 µM and active: 17.2 µM

C[C@H]1O[C@@H](O[C@H]2[C@@H](O)C[C@H](O[C@H]3[C@@H](O)C[C@H](O[C@H]4CC[C@@]5(C)[C@H](CC[C@@H]6[C@@H]5C[C@@H](O)[C@]5(C)[C@@H](C7=CC(=O)OC7)CC[C@]65O)C4)O[C@@H]3C)O[C@@H]2C)C[C@H](O)[C@@H]1O
Potency [8]: active: 168 nM and active: 48.6 nM and active: 42.8 nM
Potency [2]: active: 298 nM and active: 1.37 µM and active: 604 nM
Potency [7]: inconclusive: 84.9 nM [activator, partial curve] and inconclusive: 15.5 nM [activator] and inconclusive: 12.2 nM [activator]
Potency [3]: active: 535 nM and active: 97.8 nM and active: 193 nM
